Our source for the binding signal values is PMC6212790.

The other results are listed elsewhere or left out. At the low end of the ranking the order means little.

The target of this test is T1, GST-Rok (full length) (UniProt O34857).
T1 sequence: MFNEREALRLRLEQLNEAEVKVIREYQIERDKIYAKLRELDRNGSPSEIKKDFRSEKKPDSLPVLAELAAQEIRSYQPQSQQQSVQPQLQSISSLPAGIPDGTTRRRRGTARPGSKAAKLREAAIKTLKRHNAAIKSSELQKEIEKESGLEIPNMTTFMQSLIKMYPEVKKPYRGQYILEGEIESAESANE
Briefly: protein binding microarray.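 Note: rank score from −0.5 (least bound) to 0.5 (best bound).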 The note with it: Rok is a gene silencer of Bacillus subtilis; high values mean tight binding; most listed sequences are background and not binding sites; double strand, one strand shown.
Consider ATAGAGTC, for which the binding signal was -0.171 E-score.
Then CGGTTTTC, with -0.114 E-score; and ATCTTATG, with 0.171 E-score; and AGTACCAT, with 0.216 E-score.
Then CTCTATTA, with 0.0982 E-score; and GACATTGA, with 0.0113 E-score; and ACCACAAC, with 0.154 E-score.
Then ACTACAGT, with 0.168 E-score; and CCCGGCGC, with -0.483 E-score.
GTCTAAAC registered a binding signal of 0.09 E-score.
For AATTGTAA the value was 0.317 E-score.
Then GTGCAAGA, with 0.114 E-score; and AATGATCA, with 0.2 E-score.
For CTTGTGCA, the binding signal was 0.00086 E-score.
For AGCCCACG the value was -0.162 E-score.
GAAACTAC registered a binding signal of 0.469 E-score.
Then CGTTGAAC, with -0.111 E-score.
For CTTCGCGC the value was 0.102 E-score; for CTCCCTGC, -0.263 E-score; for ATACTCAT, 0.182 E-score.
Then AATTCTAC, with 0.435 E-score.
With CCATAAGC, the binding signal is -0.083 E-score.
For AGGCTGCC the value was -0.372 E-score; for GATTGTGC, -0.0481 E-score; for CCGTTCAA, -0.00017 E-score.
Turning to TACCGTCA, the binding signal was found to be 0.0267 E-score.
Turning to CCCTTCTA, the binding signal is -0.0759 E-score.
Then CAGCACCC, with -0.214 E-score; and GCTGTTTA, with 0.0322 E-score; and CACGTACC, with -0.25 E-score.
Then GACCCTCC, with -0.348 E-score; and ACCAACGC, with -0.141 E-score; and CCTATGTA, with 0.25 E-score.
Then CAACCACG, with -0.0285 E-score; and AGAACCGC, with -0.0628 E-score.
Take AAGCTTGA: the binding signal is -0.194 E-score.
For GCGTGCGA the value was -0.208 E-score; for GCGAGCCC, -0.296 E-score; for ACGCTAAG, 0.0725 E-score.
For GGCCTTTA the value was -0.154 E-score; for CACCTGCG, -0.189 E-score; for AGTGAACT, 0.0515 E-score.
In turn, CTAGACTA yielded a binding signal of 0.0402 E-score.
Then AAACCGAG, with -0.199 E-score.
For ATACCTGA the value was -0.0564 E-score; for CCAAGAAA, 0.0714 E-score; for GCGAGTTA, 0.0782 E-score.
For AACCCTCG, the binding signal was -0.254 E-score.
AAATACTC yielded a binding signal of 0.227 E-score.
Then CCCTCGAA, with -0.252 E-score.
For GGTCAGTA, the binding signal worked out at 0.0787 E-score.
In turn, GACGTGAA showed a binding signal of 0.164 E-score.
For AAGCGGTA the value was 0.228 E-score.
For CTAAAGTA the value was 0.192 E-score; for AGGAAGGA, -0.148 E-score; for AATCCGGC, -0.0136 E-score.
For CGCAATAG the value was 0.202 E-score; for CTTAAAAC, -0.0833 E-score; for AATACCAT, 0.334 E-score.
As for ACACCCCA, the binding signal is -0.244 E-score.
For CACGCTCG the value was -0.153 E-score.
In the case of ACCCGCAA, the binding signal is -0.0563 E-score.
Take GAAAGGCC: the binding signal was -0.223 E-score.
For GTTAGGAA the value was 0.0218 E-score.
As for AACCAAAC, the binding signal was -0.093 E-score.
Then ACCCCGGG, with -0.337 E-score; and AATACCCA, with 0.203 E-score; and TCATTGGA, with 0.0185 E-score.
For ATCATATC the value was 0.152 E-score; for CTGGCCGC, -0.247 E-score; for AGATATAA, 0.183 E-score.
Then CTAACCGC, with -0.174 E-score; and GGATTGAC, with -0.0238 E-score; and TCGTGCAA, with 0.058 E-score.
As for GAATGGAA, the binding signal is -0.0613 E-score.
As to ATTCGCCA, the binding signal was -0.0244 E-score.
For CACCATCA the value was -0.109 E-score; for CACACACC, 0.00266 E-score; for AGGCGCAT, -0.126 E-score.
Take ATAGGTGC: the binding signal is -0.0785 E-score.
Then CATTAGGC, with -0.146 E-score; and CGGAAATA, with 0.125 E-score; and TGGCGCCA, with -0.386 E-score.
Then CACTGCTC, with -0.276 E-score; and AAAGCTGA, with -0.174 E-score; and AGGATAAA, with 0.0101 E-score.
Then AAAGCGCA, with -0.14 E-score; and CTAGATCA, with 0.212 E-score; and CGATCGTC, with -0.0643 E-score.
Sequence ATTTACGG returned a binding signal of 0.243 E-score.
For CCAAATAC the value was 0.169 E-score.
For ACGGGCAT the value was -0.146 E-score.
For CAGGCACA the value was -0.0806 E-score; for CGCTTATA, 0.174 E-score; for AAAAAATG, -0.0454 E-score.
As to GGGATAAA, the binding signal was -0.101 E-score.
As to AAAACTTG, the binding signal is -0.187 E-score.
Then GGGACGCA, with -0.274 E-score; and ACGCAAGC, with 0.0878 E-score.
Consider ACCAAATA, for which the binding signal stood at 0.216 E-score.
Then ACCGTCTA, with 0.0617 E-score.
For GCTCTATA the value was 0.0683 E-score; for CCAAAGCG, -0.211 E-score; for GGGTGGCA, -0.26 E-score.
For AAAGATAA the value was 0.322 E-score; for GAAAGCGA, -0.0562 E-score.
Turning to ATGATTCA, the binding signal is -0.0428 E-score.
Consider AACAAAAC, for which the binding signal was -0.0461 E-score.
Then CGTCTGTA, with 0.0878 E-score; and AGGTCGAG, with -0.00394 E-score.
Then ACTAAATC, with 0.343 E-score; and GATTCCAC, with -0.154 E-score.
For CGTAGCAA the value was -0.123 E-score.
As for CCGACTCA, the binding signal was -0.0679 E-score.
Then TATGCGAA, with 0.0917 E-score; and CACTGCCC, with -0.291 E-score.
For AGTTTAAC the value was 0.138 E-score; for GCCAGGGC, -0.315 E-score; for GGGGGTCA, -0.442 E-score.
Then GTCAGTCA, with -0.0623 E-score; and CGGGGTTC, with -0.316 E-score.
In the case of CCAGCGCA, the binding signal stood at 0.0566 E-score.
For the sequence CCGTGTCA, the binding signal is -0.221 E-score.
Then CAGTTATG, with 0.188 E-score; and CCATCCGC, with -0.114 E-score; and GCACCCAC, with -0.0904 E-score.
Then CATATCCA, with 0.139 E-score; and AGATTTTG, with 0.0323 E-score.
Then CAAAGGAA, with -0.261 E-score; and ATTGCCTA, with 0.0706 E-score; and CAACCTTA, with 0.0684 E-score.
In the case of ACAGCTAC, the binding signal was determined as 0.143 E-score.
With CATGCCGC, the binding signal is -0.239 E-score.
Then AATCTGGC, with -0.308 E-score; and TCAACAGA, with -0.0866 E-score.
With AGGAGCCA, the binding signal was -0.339 E-score.
Regarding AACTGGTG, the binding signal was -0.0126 E-score.
Then AACTCGTC, with 0.028 E-score.
Then GCCGTGGA, with -0.109 E-score; and AGGACTGA, with 0.0533 E-score; and GATCGCCC, with -0.065 E-score.
Then CGGAGCTC, with -0.192 E-score.
As for TCGACCAA, the binding signal came out at 0.0596 E-score.
For ATGTAGAA the value was 0.423 E-score; for GGATCGCA, -0.241 E-score.
For ACTCGTAT the value was 0.0124 E-score; for GCGCTAAC, 0.0627 E-score.
Take GACTACTC: the binding signal was determined as 0.132 E-score.
Then AAAATACC, with 0.373 E-score; and CGATGCAA, with 0.0679 E-score; and ATCTTCCC, with -0.0921 E-score.
Then TCATACAA, with 0.129 E-score; and CCGTTGAC, with -0.306 E-score.
For GTATGCTA the value was 0.201 E-score; for CGGGCAAC, -0.298 E-score; for CCCCTCGC, -0.314 E-score.
For GGGTCTGA, the binding signal is -0.19 E-score.
Consider CCGAATCA, for which the binding signal was -0.0978 E-score.
For GAACTGCC the value was -0.139 E-score; for GCATATAA, 0.127 E-score; for AGGCTTAC, -0.174 E-score.
For ATTTGACG the value was 0.125 E-score.
For ACTCGTAA the value was 0.135 E-score; for ATGATTGG, -0.195 E-score; for CGCCCCTA, -0.218 E-score.
As to AGCAACAT, the binding signal is 0.0691 E-score.
Then GCGGTGTA, with -0.0709 E-score.
ACGCGATA had a binding signal of 0.157 E-score.
Then CTGGGAAA, with -0.107 E-score; and CACGCAGA, with -0.0133 E-score.
For CATTCCAG the value was -0.244 E-score.
As to AACAAGCC, the binding signal is -0.118 E-score.
